Results published in PMC4336329 (PLoS ONE, 2015).
The campaign covered roughly 310,000 compounds. About 2,200 (0.71%) showed an effect of 50% or more. Effects have a minus sign here. This is one part of the list.

Biological target: human ether-à-go-go-related gene (hERG) potassium channel (human, UniProt Q12809)
Assay: primary screen, population patch clamp on CHO cells stably expressing hERG

Sequence of human ether-à-go-go-related gene (hERG) potassium channel (Q12809 whole entry, looked up): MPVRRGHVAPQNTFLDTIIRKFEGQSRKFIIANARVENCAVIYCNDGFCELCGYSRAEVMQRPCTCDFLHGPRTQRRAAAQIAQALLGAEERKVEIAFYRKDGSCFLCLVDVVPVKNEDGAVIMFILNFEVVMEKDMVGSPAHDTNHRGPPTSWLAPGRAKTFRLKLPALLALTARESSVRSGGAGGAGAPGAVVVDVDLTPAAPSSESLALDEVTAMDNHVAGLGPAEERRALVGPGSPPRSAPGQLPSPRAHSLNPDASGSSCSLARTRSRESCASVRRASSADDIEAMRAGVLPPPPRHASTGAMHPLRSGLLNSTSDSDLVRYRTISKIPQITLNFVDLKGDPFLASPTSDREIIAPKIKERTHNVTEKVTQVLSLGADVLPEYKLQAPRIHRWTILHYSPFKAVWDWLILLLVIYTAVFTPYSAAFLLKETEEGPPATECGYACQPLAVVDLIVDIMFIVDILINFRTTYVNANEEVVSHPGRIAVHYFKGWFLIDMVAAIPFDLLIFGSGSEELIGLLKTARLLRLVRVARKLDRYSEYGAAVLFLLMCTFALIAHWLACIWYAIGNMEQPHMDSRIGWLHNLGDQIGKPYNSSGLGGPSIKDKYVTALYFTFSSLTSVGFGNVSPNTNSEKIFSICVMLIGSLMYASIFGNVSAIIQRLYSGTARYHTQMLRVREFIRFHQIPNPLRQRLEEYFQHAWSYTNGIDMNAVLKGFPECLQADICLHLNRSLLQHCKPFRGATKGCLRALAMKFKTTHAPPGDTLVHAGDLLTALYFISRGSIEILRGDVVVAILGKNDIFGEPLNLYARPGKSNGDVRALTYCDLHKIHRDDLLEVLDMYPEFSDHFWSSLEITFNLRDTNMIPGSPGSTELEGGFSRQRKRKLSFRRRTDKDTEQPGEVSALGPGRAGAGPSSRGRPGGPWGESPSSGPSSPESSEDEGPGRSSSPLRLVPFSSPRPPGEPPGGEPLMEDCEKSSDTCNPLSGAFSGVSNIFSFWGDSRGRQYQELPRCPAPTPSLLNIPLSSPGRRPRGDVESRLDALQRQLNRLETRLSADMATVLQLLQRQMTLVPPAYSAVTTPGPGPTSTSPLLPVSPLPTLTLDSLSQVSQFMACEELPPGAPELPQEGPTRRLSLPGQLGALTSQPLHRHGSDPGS

| Compound | hERG current change (%, negative = inhibition) at 1uM |
| --- | --- |
| Cc1cc(Cl)c(S(=O)(=O)N2CCCCCC2)cc1OCC(=O)NC1CCCCC1 | 13.8% |
| CN(Cc1cccnc1)Cc1c(C(=O)N2CCc3ccccc3C2)nc2ccc(Cl)cn12 | 11.7% |
| CC(=O)Nc1ccc(NC(=O)CCSCCc2ccccn2)cc1 | 19.7% |
| O=C(COC(=O)CNC(=O)c1ccccc1Cl)Nc1cc(C(F)(F)F)ccc1Cl | 16.2% |
| CC(C)CN(C(=O)C(C)N1C(=O)c2ccccc2C1=O)c1c(N)n(Cc2ccccc2)c(=O)[nH]c1=O (stereo not drawn) | 5.47% |
| CC(=O)Nc1ccc(C(=O)N/C(=C\c2ccccc2)C(=O)Nc2cccc(C(=O)O)c2)cc1 | 8.6% |
| CCCN(CC(=O)Nc1ccc(F)c(F)c1F)C(=O)c1ccc2c(=O)n3c(nc2c1)CCC3 | 11.7% |
| COc1cc(OC)c(C(=O)Nc2ccc(S(=O)(=O)N3CCCCC3)cc2)cc1OC | 16.6% |
| Cc1cc(Nc2ccccc2Br)n2nc(C)nc2n1 | 11.2% |
| COc1ccc(N2CCN(C(=S)Nc3cccc(OC)c3)CC2)cc1 | -0.255% |
| CCc1ccc(N2C(=O)c3sc4nnc(C)c(=O)n4c3C2=O)cc1 | -12% |
| Cc1cccc(CC2S/C(=N/N=C/c3ccco3)N(c3ccccc3)C2=O)c1 (stereo not drawn) | -1.42% |
| CC(C)OP(=O)(CCP(=O)(OC(C)C)OC(C)C)OC(C)C | 13.4% |
| O=C(Nc1nc2ccc(S(=O)(=O)N3CCCC3)cc2s1)C1CCCCC1 | 18.8% |
| Cc1c(Cl)cccc1NC(=S)/C(=C(\[O-])c1ccc(Cl)s1)[n+]1ccccc1 | 12.8% |
| CC(O)CNCCOc1cccc(Oc2ccccc2)c1.O=C(O)C(=O)O (stereo not drawn) | -0.98% |
| CN1/C(=N\O)c2cccc3cccc1c23 | 9.88% |
| CCOC(=O)c1cc(-c2ccccc2)sc1NC(=O)CN1C(=O)NC(CC)(c2ccccc2)C1=O (stereo not drawn) | 0.988% |
| CCc1ccc(NC(=O)CN(C)S(=O)(=O)c2ccc3[nH]c(=O)oc3c2)cc1 | 5.73% |
| CCCCCC(O)(c1ccc(OC)cc1)C(CN1CCOCC1)c1ccccc1.Cl (stereo not drawn) | 11.7% |
| Cc1cc(Oc2ccccc2)nc(-c2ccccc2)n1 | 3.61% |
| Cc1[nH]ccc(=O)c1OC1OC(CO)C(O)C(O)C1O (stereo not drawn) | 13.7% |

| Compound | hERG current change (%, negative = inhibition) at 1uM |
| --- | --- |
| CCN(CC(=O)Nc1c(F)cccc1F)C(=O)CNC(=O)COc1ccccc1 | 10.9% |
| CCN(CC(=O)Nc1c(F)cccc1F)C(=O)CCCc1nc2ccccc2c(=O)[nH]1 | 7.51% |
| Cc1cc(C)n(-c2cc(N3CCN(S(=O)(=O)c4ccc(Cl)cc4)CC3)ccc2[N+](=O)[O-])n1 | 5.54% |
| O=S1(=O)CCC(NS(=O)(=O)c2ccc3ccccc3c2)C1 (stereo not drawn) | 12% |
| O=C(O)C(=O)O.O=C(c1ccc(F)cc1)N1CCN(C2CCC(c3ccccc3)CC2)CC1 (stereo not drawn) | -48.3% |
| CCCNC(=O)c1c(NC(=O)C2COc3ccccc3O2)sc2c1CCCC2 (stereo not drawn) | -1.64% |
| COc1ccccc1CNC(=O)c1cc(S(=O)(=O)N2CCCCC2)c[nH]1 | 10.9% |
| CCn1cc(CN2CCC(n3nccc3NC(=O)C3CCCC3)CC2)cn1 | 17.1% |
| CCOc1ccc(NC(=O)CN(C)C(=O)CN2C(=O)C3CC=CCC3C2=O)cc1OCC (stereo not drawn) | 15% |
| CC(CCl)OC(C)CCl (stereo not drawn) | 9.1% |
| CCn1cc(C(=O)NCCN(C)CCc2ccccc2)c(=O)c2cc(S(=O)(=O)N(C)C)ccc21 | -1.34% |
| CC(=O)c1ccc(OCc2cc(C(=O)NCC3CCCCO3)no2)cc1 (stereo not drawn) | 8.16% |
| C=CCOc1ccc(/C=C2/C(=O)ON=C2C)cc1OC | 16.8% |
| Cc1ccccc1Nc1c(-c2ccccn2)nc2c(C)cccn12 | 1.2% |
| O=C(NCc1ccc(F)cc1)C(Cc1ccccc1)NS(=O)(=O)c1cccs1 (stereo not drawn) | 13.5% |
| CCCSC(=S)NC1CCS(=O)(=O)C1 (stereo not drawn) | 10.5% |
| COc1ccccc1C1CCN(Cc2ccc(C)cc2)CC1 | -61.2% |
| COc1ccc(C(=O)O)cc1N1C(=O)Nc2ccccc2N1O | 6.57% |
| COc1ccc(CN(CCC(c2ccc(F)cc2)C2CCOC(C)(C)C2)C(=O)c2ccco2)cc1 (stereo not drawn) | -9.6% |
| NC(=O)c1ccsc1NC(=O)C1CCCN1S(=O)(=O)c1ccc(Cl)cc1 (stereo not drawn) | -18% |
| COC(=O)c1cn(C(=O)c2ccc(C)cc2)c2ccccc12 | 11.9% |
| CCOC(=O)C1=C(C)NC(C)=C(C(=O)OC)C1c1ccco1 (stereo not drawn) | 7.62% |

| Compound | hERG current change (%, negative = inhibition) at 1uM |
| --- | --- |
| C=C(C)CN1C(=O)C2(OCCO2)c2cc(Br)ccc21 | 6.49% |
| COc1ccc(-n2c(SCC(=O)Nc3cc(C)on3)nc3c([nH]c4ccccc43)c2=O)cc1OC | 16.1% |
| CCCONC(=O)Nc1ccccc1[N+](=O)[O-] | 15.7% |
| Cc1ccc(N2CCN(C(=O)N3CCCC3)CC2)cc1Cl | 18.9% |
| COCCOC(=O)c1c(NC(=O)CN(C)c2ccccc2)sc(C(N)=O)c1C | 7.19% |
| CCc1ccc(NC(=O)C(C)Sc2nc(-c3ccco3)c(C#N)c(=O)[nH]2)cc1 (stereo not drawn) | 21.2% |
| COc1ccc(NC2CCCN(C(=O)c3cccnc3)C2)cc1 (stereo not drawn) | 14.4% |
| CCCCN(C(=O)c1cc(=O)[nH]c2ccccc12)c1c(N)n(CCC)c(=O)[nH]c1=O | -1.15% |
| O=C(Nc1cccn(Cc2c(F)cccc2Cl)c1=O)NC1CCCCC1 | 17.6% |
| COc1ccc(NC(=O)C2CCN(S(=O)(=O)c3ccc(OC)c(OC)c3)CC2)cc1 | 12.9% |
| COc1ccc(NC(=O)CCC(=O)Nc2nnc(CC(C)C)s2)cc1Cl | 14.1% |
| Cc1cc(=O)oc2c3c(cc(OCC(=O)NC4CC4)c12)OC(C)(C)CC3 | 9.53% |
| COc1cccc(C(=O)C2CCCN(Cc3cccc(-n4cccn4)c3)C2)c1 (stereo not drawn) | -15.1% |
| Cc1cc(C)c(S(=O)(=O)Nc2cccnc2)c(C)c1 | 2.61% |
| CCn1cc(C(=O)O)c(=O)c2cc(F)c(N3CCN(C(=S)NC(=O)c4ccccc4Br)CC3)cc21 | 15.2% |
| Cc1ccc(C(=O)CCC(=O)OCC(=O)Nc2c(C)nn(-c3ccccc3)c2C)cc1 | 15.1% |
| CC(C)[C@H](NC(=O)C1CCN(S(=O)(=O)c2ccc(F)cc2)CC1)C(=O)N1CCCC1 | 18.2% |
| O=C(Nc1ncccn1)C1=C(O)c2ccccc2S(=O)(=O)N1Cc1ccccc1 | 12.1% |
| COc1ccc(NC(=O)Cn2c([N+](=O)[O-])cnc2C)cc1Cl | 3.7% |
| CCc1nc2nc(C)c(NS(=O)(=O)c3cccs3)c(=O)n2[nH]1 | 6.42% |
| O=[N+]([O-])c1cccc(CSc2nnc(Cc3ccccc3)n2-c2ccc(F)cc2)c1 | 2.27% |
| CC(C)NCC(O)COc1cccc2[nH]ccc12 (stereo not drawn) | 14.3% |

| Compound | hERG current change (%, negative = inhibition) at 1uM |
| --- | --- |
| COc1cc(/C=N/NC(=O)C(N)=O)ccc1OC(=O)c1cccs1 | 12.4% |
| CCOC(=O)C1(CC2CC2)CCN(Cc2cn[nH]c2-c2cccc(F)c2)CC1 | -57.6% |
| O=C(/C=C/Sc1ccccc1)c1ccc(Cl)cc1 | 13% |
| CCOC(=O)CSc1nc2sc3c(c2c(=O)[nH]1)CCCC3 | 6.92% |
| CCCS(=O)(=O)Nc1c(OC)ccc2c1c(C(=O)OCC)c(C)n2C | 1.16% |
| O=C(COc1ccc(Cl)cc1Br)NCC(c1ccco1)N1CCCC1 (stereo not drawn) | 4.95% |
| Cc1ccc(C(=O)COC(=O)CCS(=O)(=O)c2ccccc2)cc1[N+](=O)[O-] | 16.5% |
| O=C(O)C(=O)O.c1coc(CNC2CCCCC2)c1 | 1.96% |
| CCOC(=O)C1CCN(S(=O)(=O)c2ccc3c4c(cccc24)C(=O)N3)CC1 | -1.6% |
| Cc1c(OC(C)C(=O)NCc2cccnc2)ccc2c3c(c(=O)oc12)CCCC3 (stereo not drawn) | 2.67% |
| Cc1onc(C(=O)Nc2ccc(OC(F)(F)F)cc2)c1[N+](=O)[O-] | 23% |
| Cc1oc2cc3c(C(=O)N4CCCCC4)c(C)oc3cc2c1C(=O)N1CCCCC1 | 2.21% |
| O=C(OCC(=O)N1CCc2ccccc21)c1ccc(Cl)nc1 | 13.1% |
| CN(C)C(=O)CSc1nnc2sc3ccccc3n12 | 9.24% |
| Cc1nc(-c2ccccc2)sc1C(=O)/C=C/c1ccccc1 | 6.29% |
| COc1cc(/C=C/C(=O)NC(=O)c2ccccc2O)ccc1OC(C)=O | 6.59% |
| COc1ccc(/C=C/C(=O)N(C)C2CCCCC2)cc1Br | 6.47% |
| CCNc1nc(SCCOc2ccc(C)cc2)nc(N(C)C)n1 | 8.71% |
| Cc1cc(C)n(CC(=O)n2c3ccccc3c3ccccc32)n1 | 5% |
| O=C(O)CN(Cc1ccccc1)S(=O)(=O)c1ccc2c(c1)OCCO2 | 9.21% |
| CC(=O)c1cccc(NC(=O)c2ccc(N(C)S(=O)(=O)c3ccc(C)cc3)cc2)c1 | 10.3% |
